# Assay results as given in PubChem BioAssay AID588855 (National Center for Advancing Translational Sciences (NCATS), 2011).
# Screen size: about 410,000 compounds; about 5,000 (1.2%) were called active. Inconclusive means that the source gave no clear call. Such entries were picked first, then a sample of the others. The call rests on the fitted dose curve; in most records, active means well fitted inhibition curve with a large enough effect; inconclusive means small, poorly fitted or top-dose-only effect; inactive means no such curve, though single readings can be large or run the other way. Potencies beside an inconclusive call are fits to weak or partial responses and may not hold up.
# Assay: qHTS for Inhibitors of TGF-b; further: nearly all actives have a fitted effect of over 65% in size
# Conditions: HepG2 CAGA-GFP TGF-b/SMAD3 reporter, GFP fluorescence, 18 h, TGF-beta stimulated, 500 pg/mL final; series mostly up to 46.1 µM
# Summary of the method: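 Using HEPG2 CAGA-GFP reporter cells at 1000 cells/well, we pinned test compounds, stimulated with recombinant TGF-beta (500 pg/mL final) and measured total well GFP after 18 h.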
# Potency means the concentration at half of the fitted maximal effect; tags describe the fitted curve by direction and shape.
row,Compound,Potency
1,O=[N+]([O-])c1cc(/C=N/O)ccc1N1CCCC1,inactive
2,CC(=O)Nc1ccc(NC(=O)C(C)OC(=O)C2CCCC2)cc1 (centres undefined),inactive
3,O=C(Nc1nnc(S(=O)(=O)N2CCCC2)s1)c1ccc(F)cc1,inactive
4,CC(=O)N1c2ccc(S(=O)(=O)N3CCC(C(=O)NCc4ccccc4Cl)CC3)cc2CC1C (centres undefined),inactive
5,Cc1cccc(NS(=O)(=O)c2ccc(Cl)c(C(=O)Nc3ccccc3C)c2)c1,"inconclusive: 12.6 µM [inhibitor, partial curve, poor fit]"
6,O=C(C1CC(=O)N(C2CCCC2)C1)N1CCN(c2cccc(Cl)c2)CC1 (centres undefined),"inconclusive: 6.31 µM [inhibitor, full curve, poor fit]"
7,O=C(O)Cc1cn(Cc2ccc(F)cc2)c2ccccc12,"inconclusive: 6.31 µM [inhibitor, partial curve, poor fit]"
8,CCCN(Cc1cccs1)C(=O)Nc1ccc(Br)c(C)c1,active: 11.2 µM
9,CC(C)(C)c1ccc2c(c1)C(=O)c1ccccc1C2=O,"inconclusive: 35.5 µM [inhibitor, single point]"
10,CC(C)(C)c1ccc(C(=O)Cn2nc(C(=O)O)c3ccccc3c2=O)cc1,"inconclusive: 35.5 µM [inhibitor, single point]"
11,COc1ccc(C(=O)NCc2ccc3c(c2)CCN3C(=O)c2cccc(C)c2)cc1OC,inactive
12,O=C(NC(=S)Nc1ccc(N2CCN(C(=O)c3ccccc3)CC2)cc1)c1cccs1,"inconclusive: 35.5 µM [inhibitor, single point]"
13,O=C(c1cccs1)N(Cc1ccc(Cl)cc1)C1CCS(=O)(=O)C1 (centres undefined),inactive
14,Nc1[nH]c(N=NC(=O)c2ccccc2O)c2ccccc12,"inconclusive: 1 µM [inhibitor, partial curve, poor fit]"
15,O=C(COC(=O)c1ccc(F)c(S(=O)(=O)N2CCOCC2)c1)NCc1ccccc1,"inconclusive: 1.41 µM [inhibitor, partial curve, poor fit]"
16,COc1ccc2[nH]c(=O)c3c(c2c1)OC(C)(C)C=C3,"inconclusive: 12.6 µM [inhibitor, single point]"
17,Cc1ccc(NC(=O)Cn2cc(C(=O)c3cccs3)c3ccccc32)cc1C,"inconclusive: 15.8 µM [inhibitor, partial curve, poor fit]"
18,CCCCCNC(=O)c1cccc(S(=O)(=O)N2CC3(C)CC2CC(C)(C)C3)c1 (centres undefined),"inconclusive: 2.51 µM [inhibitor, full curve, poor fit]"
19,Cn1c(Nc2ccc(Cl)cc2F)nc2cc(-c3ccccc3)sc2c1=O,"inconclusive: 14.1 µM [inhibitor, single point]"
